Test results from PMC4336329 (PLoS ONE, 2015).
Among all 310,000 compounds or so, about 14,000 (4.5%) showed an effect of 50% or more. The effect is printed as a negative number. The list shows a part of the results.

target: human ether-à-go-go-related gene (hERG) potassium channel (human, UniProt Q12809); experiment: primary screen, population patch clamp on CHO cells stably expressing hERG
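Also: peak tail current of the secondary pulse compared with the same well before compound.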

Sequence of human ether-à-go-go-related gene (hERG) potassium channel (Q12809 whole entry, looked up): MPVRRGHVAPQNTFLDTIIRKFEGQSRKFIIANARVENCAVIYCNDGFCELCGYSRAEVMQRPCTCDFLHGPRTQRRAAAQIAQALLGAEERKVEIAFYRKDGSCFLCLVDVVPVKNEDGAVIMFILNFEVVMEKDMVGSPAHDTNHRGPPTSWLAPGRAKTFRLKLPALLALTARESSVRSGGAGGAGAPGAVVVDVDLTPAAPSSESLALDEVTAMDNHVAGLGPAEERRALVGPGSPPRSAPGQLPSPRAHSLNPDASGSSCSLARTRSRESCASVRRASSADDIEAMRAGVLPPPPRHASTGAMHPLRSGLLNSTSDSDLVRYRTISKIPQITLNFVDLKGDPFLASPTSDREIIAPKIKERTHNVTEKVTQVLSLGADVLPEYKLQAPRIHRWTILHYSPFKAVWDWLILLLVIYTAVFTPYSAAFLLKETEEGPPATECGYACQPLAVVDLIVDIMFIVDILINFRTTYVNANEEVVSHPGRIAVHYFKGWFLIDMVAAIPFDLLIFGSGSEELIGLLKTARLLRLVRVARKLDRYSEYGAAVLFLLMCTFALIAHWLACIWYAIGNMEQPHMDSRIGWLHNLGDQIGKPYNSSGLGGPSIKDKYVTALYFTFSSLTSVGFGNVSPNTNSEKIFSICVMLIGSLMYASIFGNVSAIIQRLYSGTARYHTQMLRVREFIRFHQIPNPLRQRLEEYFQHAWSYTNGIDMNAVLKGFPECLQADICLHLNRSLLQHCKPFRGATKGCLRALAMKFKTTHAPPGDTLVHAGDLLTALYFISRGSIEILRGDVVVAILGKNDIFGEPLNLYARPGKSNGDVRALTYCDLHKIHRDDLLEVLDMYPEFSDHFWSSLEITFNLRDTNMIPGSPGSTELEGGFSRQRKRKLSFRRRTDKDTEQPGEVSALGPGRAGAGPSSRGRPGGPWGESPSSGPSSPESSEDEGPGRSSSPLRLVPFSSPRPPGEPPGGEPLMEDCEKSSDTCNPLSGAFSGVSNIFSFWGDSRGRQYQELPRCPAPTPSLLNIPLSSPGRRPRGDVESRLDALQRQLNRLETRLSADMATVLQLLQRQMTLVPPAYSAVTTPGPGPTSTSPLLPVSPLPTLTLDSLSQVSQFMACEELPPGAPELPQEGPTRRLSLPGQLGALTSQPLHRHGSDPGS

Row | SMILES | hERG current change (%, negative = inhibition) at 10uM
1 | CC(=O)NC1=NN(C(C)=O)C(C)(CS(=O)(=O)c2ccc3ccccc3c2)S1 (centres unmarked) | -0.325%
2 | CC(C)(C)n1nnc(CCc2nnn(C(C)(C)C)n2)n1 | 24.2%
3 | CCCC(=O)Nc1ccc2c(c1)nc(CN1CCN(C(C)=O)CC1)n2C | -0.403%
4 | CN(C)/C=N/C(=S)Nc1ccccc1 | 5.67%
5 | Cc1ccc(NC(=O)CN2CCN(CCN=CC3=C(O)CC(c4ccccc4)CC3=O)CC2)cc1 (centres unmarked) | -67.4%
6 | CC1=NN(C(=S)Nc2ccccc2)C(C)(C)C1 | 14%
7 | O=C(Nc1ccc(N2CCOCC2)nc1)c1ccccc1Cl | 15.4%
8 | Nc1[nH]n2c(=O)cc(-c3ccccc3)nc2c1N=Nc1ccccc1 | 11%
9 | COc1ccc(S(=O)(=O)N2CCCC(C(=O)Nc3cccnc3)C2)cc1Cl (centres unmarked) | -34.3%
10 | CCOc1cc(C(=O)Nc2c(C)ccc3nsnc23)cc(OCC)c1OCC | -7.05%
11 | CC(=O)Nc1ccc(S(=O)(=O)NCC(CCC(=O)O)C(F)(F)F)cc1 (centres unmarked) | 16.8%
12 | CCOC(=O)c1cccc(NC(=O)Nc2ccc3c(c2)C(=O)OC3)c1 | 11.9%
13 | O=C(CN1CCN(S(=O)(=O)c2ccc(F)cc2)CC1)Nc1ccc2c(c1)OCCO2 | -10.9%
14 | Cc1ccc(N=C2NC(=O)/C(=C\c3cccs3)S2)cc1C | 18.3%
15 | O=C(O)CC(C(=O)Nc1ccc(F)cc1)C1CCCO1 (centres unmarked) | 4.85%
16 | Cc1nnc(SCC(=O)c2c(N)n(Cc3ccccc3)c(=O)n(C)c2=O)n1C | -2.75%
17 | COc1ccc(C(=O)OC2CC[C@@]3(C)C4CCC5[C@]6(O)CC(O)[C@@]7(O)C(CN8CC(C)CCC8[C@@]7(C)O)[C@]6(O)C[C@@]53O[C@]24O)cc1OC (some centres unmarked) | 12.9%
18 | C/C(Cc1ccccc1)=N\NC(=O)CNC(=O)c1ccccc1F | 8.09%
19 | Cc1ccc(NC(=O)C2CCCN2C(=O)OC(C)(C)C)cc1C (centres unmarked) | 1.96%
20 | CC(=O)N1CCc2cc(S(=O)(=O)NC(Cc3ccccc3)C(=O)Nc3cc(C)ccn3)ccc21 (centres unmarked) | 1.38%
21 | Cn1c(SCC(=O)Nc2cccc3ccccc23)nc(O)cc1=O | 4.89%
22 | CN(C(=O)c1ccc2c(=O)n3c(nc2c1)CCCCC3)c1ccccc1Cl | -26.2%

Row | SMILES | hERG current change (%, negative = inhibition) at 10uM
23 | Cc1ccc(NC(=O)CSc2ccccc2)cc1S(=O)(=O)N1CCCCC1 | -0.653%
24 | Cc1ccc2nc(C)c3c(c2c1)SCC3 | -27.4%
25 | CCN(CC)CCN1C(=O)C(O)=C(C(=O)c2cc3ccccc3o2)C1c1cccnc1 (centres unmarked) | 2.92%
26 | CN(Cc1ccccc1)S(=O)(=O)CCNC(=O)c1ccc2c(c1)OCO2 | 11.4%
27 | Cc1ccc(NC(=O)CCCn2c(=S)[nH]c3ccsc3c2=O)cc1C | 17.1%
28 | Cc1cc(=O)[nH]c(SCC(=O)Nc2ccc(F)cc2)c1C#N | 15%
29 | CN1CCN(C(=O)COc2ccc(S(=O)(=O)Nc3ccc(F)cc3)cc2)CC1 | 2.27%
30 | CN(C)c1cccc2c1c(NC(=O)c1ccc(Cl)cc1)nn2C | -5.71%
31 | c1ccc(CN2CCC(Nc3ncnc4sccc34)CC2)cc1 | -66.9%
32 | OCCC1CN(CC2CC2)CCN1Cc1ccc(F)c(F)c1 (centres unmarked) | -25.5%
33 | Cl.O=C(OCCN1CCOCC1)c1cccs1 | 6.58%
34 | O=C(/C=C/c1ccc(F)cc1)NC(=S)Nc1ccccc1O | -1.18%
35 | Oc1c(Cl)cc(Cl)cc1CNc1nccs1 | 9.62%
36 | COc1ccc(N=Nc2cc(-c3ccccc3)ccc2O)cc1 | -7.23%
37 | COc1ccc(-c2cc3nc(C4CCN(C(=O)OC(C)(C)C)CC4)c(C(=O)O)cn3n2)cc1 | -5.52%
38 | O=C(NCCCN1CCOCC1)C(Cl)(Cl)Cl | 9.27%
39 | CSc1cccc(NC(=S)N(CCN(C)C)C(C)c2ccccn2)c1 (centres unmarked) | -36.2%
40 | O=C(CSCc1c(Cl)cccc1Cl)NN=C1CCCC1 | 1.77%
41 | Cc1ccc(-n2nc3c(c2NC(=O)c2ccc4c(c2)OCO4)CS(=O)C3)cc1 (centres unmarked) | 7.09%
42 | COc1cccc2sc3ccc(NCc4ccc5c(c4)OCO5)cc3c(=O)c12 | -0.817%
43 | CN(CC(=O)Nc1ccc(N2CCOCC2)cc1)CC(=O)Nc1ccc([N+](=O)[O-])cc1Br | 18.9%
44 | COc1ccc(C)cc1NC(=O)/C=C/c1ccc(OC)c(S(=O)(=O)N2CCOCC2)c1 | -15.7%

Row | SMILES | hERG current change (%, negative = inhibition) at 10uM
45 | O=C(CN1C(=O)c2ccccc2S1(=O)=O)N1CCc2ccccc21 | 9.85%
46 | CCCCOC(=O)c1ccc(NC(=O)C(=O)NCCN(CC)CC)cc1 | -73.2%
47 | CCn1c(CSc2nc(C)cc(C)n2)nnc1SCC(N)=O | 22.4%
48 | C/C(CCc1oc2c(Br)cc(Br)cc2c1-c1ccc(C)o1)=N\O | 15%
49 | Cc1cc(N2CCCC2=O)cc(C)c1S(=O)(=O)Nc1c(C)nn(C)c1C | 22.7%
50 | Cc1cc2oc(=O)cc(CSc3nc(N)cc(N)n3)c2cc1C | 6.12%
51 | CC(=NCc1ccc2c(c1)OCO2)c1c(O)n(-c2ccc(C)cc2)c(=O)[nH]c1=O | 3.47%
52 | CCOc1cc(C(=O)Nc2ccc(S(=O)(=O)Nc3nnc(CC)s3)cc2)cc(OCC)c1OCC | 33.7%
53 | CS(=O)(=O)Nc1cccc(C2=NN(S(=O)(=O)c3ccccc3)C(c3ccco3)C2)c1 (centres unmarked) | -29.9%
54 | O=C(Nc1cccnc1)Nc1cccc([N+](=O)[O-])c1 | -20.3%
55 | O=C(Nc1ccc(F)cc1F)c1cccn(Cc2ccccc2)c1=O | 13.1%
56 | Cc1ccc(S(=O)(=O)N2CCN(CC(=O)N/N=C/c3ccco3)CC2)cc1 | -33%
57 | Cc1cccc(OCCCOc2cccc3cccnc23)c1C | 10.4%
58 | O=C(CSc1ncn[nH]1)Nc1ccc(S(=O)(=O)N2CCCC2)cc1 | 14.5%
59 | O=C(O)CCCC(=O)N1CCc2cc(S(=O)(=O)NCc3ccccc3)ccc21 | 33.7%
60 | Cc1cc(C)n2nc(C(=O)OCC(=O)N(C)CC(=O)Nc3ccccc3Cl)nc2n1 | 7.77%
61 | CC1CCN(C(=O)CCCC(=O)N2CCC(C)CC2)CC1 | -11.9%
62 | CCOC(=O)CNC(=O)CSc1nnc(NC(=O)c2ccc3c(c2)OCO3)s1 | 3.8%
63 | CC(C)CNC(=O)COC(=O)/C=C/c1ccco1 | 2.19%
64 | COc1ccc(S(=O)(=O)N2CCN(c3ccc4nnc(-c5ccccc5)n4n3)CC2)cc1 | -66.4%
65 | O=C1c2ccccc2C(=O)N1/N=C/c1ccc(Oc2ccc([N+](=O)[O-])cn2)cc1 | -23.7%
66 | COc1ccc(-c2nn(-c3ccccc3)cc2/C=C(/C#N)C(N)=O)cc1[N+](=O)[O-] | -7.55%

Row | SMILES | hERG current change (%, negative = inhibition) at 10uM
67 | Cc1ccc(C(=O)Oc2oc(-c3ccco3)nc2C=Nc2ccc(Cl)cc2)cc1 | 12.8%
68 | CCOc1ccc(-c2nc(CSCC(=O)N3CCN(c4cccc(OC)c4)CC3)c(C)o2)cc1 | -21.3%
69 | N/C(=N\N=C\c1ccc2c(c1)OCO2)c1nonc1N | 3.29%
70 | CC(=O)Nc1ccc(N2C(=O)C3C4C=CC(CC4)C3C2=O)cc1 (centres unmarked) | 13.1%
71 | O=C(NC1CCN(Cc2ccccc2)CC1)c1ccc(S(=O)(=O)NCc2ccco2)cc1 | -12.3%
72 | O=C1c2ccccc2C(=O)N1CC(O)COc1ccc(Br)cc1 (centres unmarked) | -1.51%
73 | CCOC(=O)C1(CCc2ccccc2)CCN(Cc2cccc3cnccc23)CC1 | -69.6%
74 | [Cl-].[NH3+][C@@H](Cc1ccccc1)C(=O)N1CCOCC1 | 16.1%
75 | CCOC(=O)C1=C(c2ccccc2)NC(=O)NC1c1cc(OCC)c(O)c([N+](=O)[O-])c1 (centres unmarked) | 22.8%
76 | CC1=C(C(=O)NCc2ccccc2)C(c2ccccc2OCC(N)=O)NC(=O)N1 (centres unmarked) | -2.76%
77 | CC(C)C(c1nnnn1Cc1ccc2c(c1)OCO2)N1CCN(c2ccccc2)CC1 (centres unmarked) | 23.1%
78 | O=C(COc1ccc(Cl)c2cccnc12)N1CCOCC1 | 9.56%
79 | CCO[C@@H]1OC(C(=O)O)=C[C@H](C2CCCCC2)[C@H]1CCCO | 6%
80 | Cc1cc(C(=O)Nc2ccc(Cl)cc2)c(C)n1Cc1cccs1 | -6.19%
81 | CCOC(=O)c1c(NC(=O)c2cccnc2)sc(C(C)=O)c1C | -5.09%
82 | Cc1cccc(NC(=S)N2CCN(C(=O)c3ccco3)CC2)c1 | -9.36%
83 | Cc1cc(OCc2cc(C(=O)N(C)CCOc3ccccc3)no2)cc(C)c1Cl | 8.54%
84 | Cc1c2ccccc2nc2c(F)c(NCCO)c(F)c(F)c12 | -5.67%
85 | COc1cc(C#N)ccc1OCC(=O)Nc1cccc(S(=O)(=O)N2CCCC2)c1 | -44.4%
86 | COc1cccc(C(=O)NC(=S)Nc2ccc([N+](=O)[O-])cc2C)c1 | 3.64%
